Experimental data from PubChem BioAssay AID602393 (Broad Institute, 2012).
Hit rate of the full screen: of about 350,000 compounds, about 7,000 (2%) were called active. Inconclusive means that the source gave no clear call. Such entries were picked first, then a sample of the others. Cut-off read from the data, not from the text of the source: active = activation above about 40%; inconclusive = no clear call, values can overlap the other calls; inactive = below that.

test: raisers of Bmi1 knock-in reporter signal – mouse ES cells, Bmi1 luciferase knock-in, single point, esBAF inhibitor project, primary screen (AID 602393); conditions: 24 h, at 12.5 µM, hits give high values, 100% = twice the neutral-well signal;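 note: 0% = median of the plate's neutral control wells and 100% = double that signal; a rise in the Bmi1 reporter signal indicates esBAF inhibition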

Reporter increase, active:
O=C(O)c1ccccc1-c1ccc(/C=C2\SC(=O)N(c3ccccc3)C2=O)o1 55.7%
Cc1ccc(NC(=O)c2cc(N(C)C)ccc2[P+](=O)O)cc1 45%
COc1ccc(-c2csc(-n3cccn3)n2)cc1 67.9%
Nn1c(Nc2ccccc2)nc2ccccc21 64.5%
O=C(Nc1ccc(N2CCCC2)c(Cl)c1)c1ccc(Br)o1 76.2%
O=C(NNC(=O)c1cc2ccccc2oc1=O)c1ccccc1 54.7%
O=[N+]([O-])c1cccn2cc(-c3ccc(Br)cc3)nc12 57.7%
Cc1ccc(C(=O)Nc2ccc3c(c2)OCO3)cc1S(=O)(=O)N1CCCC1 79.2%
COc1ccc2oc3cc(Cl)ccc3c(=O)c2c1 79.6%
CCC(=O)Nc1nc(-c2ccc3c(c2)CC(C)N3S(C)(=O)=O)cs1 (centres undefined) 54.3%
O=C1CCC(C(=O)N2CCCCO2)CN1CCc1ccccc1 (centres undefined) 51.1%
COc1ccc(NC(=O)Nc2ccc3nccnc3c2)cc1 55.2%

Reporter increase, inactive:
C[C@H]1CN([C@@H](C)CO)C(=O)c2cc(C#CC3CC3)cnc2O[C@H]1CN(C)Cc1cccc(C(=O)O)c1 -1.88%
CO[C@H]1CN(C)C(=O)c2cc(NC(=O)Nc3ccccc3F)ccc2OC[C@H](C)N(Cc2ccccc2C(=O)O)C[C@H]1C -2.6%
O=S(=O)(c1ccccc1)N1C[C@H]2[C@@H](c3ccccc31)[C@@H](CO)N2Cc1ccc2c(c1)OCO2 -2.73%
O=C(c1ccccc1)c1ccc[nH]1 5.78%
C[C@@H]1NC(=O)OC1c1ccco1 (some centres undefined) -3.55%
O=C(CCNC(=O)c1ccc(Br)cc1)NC1CCCCCC1 2.59%
Cc1nnnn1/C(=C\c1ccccc1)C(=O)OCC(=O)NC(C)(C)C 13.8%
C[C@H](CO)N1C[C@H](C)[C@@H](CN(C)CC2CCCCC2)Oc2ccc(NC(=O)Nc3ccc4c(c3)OCO4)cc2CC1=O -0.747%
C[C@H]1CN([C@@H](C)CO)C(=O)Cc2cc(NC(=O)C3CCCCC3)ccc2O[C@H]1CN(C)C(=O)NC1CCCCC1 0.396%
O=C(N[C@H]1CC[C@H](CCNS(=O)(=O)c2ccc(Cl)cc2)O[C@@H]1CO)c1ccccn1 8.96%
COc1ccccc1NC(=O)C/C(C)=N/NC(=O)c1ccccn1 14.1%
Cc1cc(C(=O)CSc2nnnn2C)c(C)n1-c1cccc(F)c1 16.6%
COc1cccc(S(=O)(=O)N[C@@H]2CC[C@H](CC(=O)NCc3ccccc3)O[C@H]2CO)c1 0.355%
Cc1ccc(C(=O)CCC(=O)NCc2ccccc2)cc1 7.64%
Cc1ccc2c(c1)N(C(=O)CSc1nncn1C)C(C)(C)c1ssc(=S)c1-2 -2.73%
O=Cc1ccc(N2CCCC2)c([N+](=O)[O-])c1 -0.737%
CCCN1C[C@@H](C)[C@@H](OC)CN(C)C(=O)c2ccc(NC(=O)c3ccccc3)cc2OC[C@@H]1C 4.39%
CN1CCN(c2ccc(NC(=O)c3ccc([N+](=O)[O-])o3)cc2Cl)CC1 -14.7%

Reporter increase, inconclusive:
O=C1CC2C(CCC23OCCO3)c2ccc3ccccc3c21 (centres undefined) 40.1%
O=C(N/N=C/c1ccccc1F)NC12CC3CC(CC(C3)C1)C2 58.4%
c1ccc(CCNc2ncnc3nc[nH]c23)cc1 41.1%
Nc1cc(N)nc(SCc2ccccc2)n1 41.2%
CCC(C(=O)NC1CCCCC1)n1c(SCc2ccccc2F)nc2ccncc21 (centres undefined) 42.8%
COc1cc2c(cc1NC(=O)C(C)OC(=O)/C=C/c1ccc(OC(F)F)cc1)oc1ccccc12 (centres undefined) 45.7%
COc1ccc(NC(=O)n2nc(OC(=O)c3cccs3)cc2N)cc1 41.8%
O=C(Cc1ccc(F)cc1)c1ccc(O)cc1O 41.1%
O=C(Nc1cnn(Cc2ccc(Cl)cc2Cl)c1)c1noc2c1CCCC2 41.1%
c1ccc(CN2CCN(c3nc4ccccc4s3)CC2)cc1 33.8%
S=C(Nc1ccc(Br)cc1Cl)N1CCCC1 47.5%
CCNC(=O)c1c(O)c2cccc3c2n(c1=O)CC3 41%
Cc1nc2nc(-c3ccc(Cl)cc3)[nH]n2c(=O)c1Cc1ccccc1 41.2%
Cc1cccc2sc(NC(=O)c3ccc(Cl)s3)nc12 42.5%
CCC1CCCCN1CCCNC(=O)c1ccc2nc(N3CCCCC3)sc2c1 (centres undefined) 46%
COC(=O)N/N=C\c1c(C)nn(-c2ccccc2)c1Cl 47.8%
COc1ccccc1/C=C/C(=O)NCCc1ccccn1 40.2%
O=C(/C=C/c1ccc(OC2CSC2)cc1)c1ccccc1 42.4%
Cc1nc(-c2ccc([N+](=O)[O-])cc2)nc2[nH]ccc(=O)c12 41.8%
O=[N+]([O-])c1cccc(/C=C/c2ccccn2)c1 52.6%
Cc1c(C(=O)Nc2cc(F)cc(F)c2)cnn1-c1ccccc1 68.1%
O=C(Cn1cnc2ccccc2c1=O)Nc1ccc2c(c1)OCCO2 46.3%
O=C(CCN1C(=O)c2ccccc2S1(=O)=O)Nc1nc2c(s1)CCCC2 40.3%
Cc1ccc2nc(Nc3ccc(C)c(C)c3)c3nncn3c2c1 47.6%
CCC(c1nnnn1C1CCCC1)N1CCN(Cc2ccccc2)CC1 (centres undefined) 44.7%
Cc1cc(=O)oc2cc(NC(=O)c3cccc(S(C)(=O)=O)c3)ccc12 41.8%
O=C(Nc1ccc(CN2CCOCC2)cc1)c1ccc(Br)cc1 43.1%
COC(=O)c1cc2c(=O)c3ccccc3oc2nc1C 45.2%
O=C(Nc1ccn(Cc2ccccc2)n1)c1ccc(F)cc1 52.1%
